# Where a chain is given by its changes, count along the chain named. This is one part of the list.
# T1: RBFOX1 RRM RbFoxmut (Fox-RRM*) (Homo sapiens, UniProt Q9NWB1 109-208, R118D;E147R;N151S;E152T)
# T1 sequence: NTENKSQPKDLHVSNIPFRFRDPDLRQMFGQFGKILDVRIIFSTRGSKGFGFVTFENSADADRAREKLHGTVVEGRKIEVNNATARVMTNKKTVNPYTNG
# B1: GAAUCAU (DNA:RNA)
# RNA: GGGAGACCGGAAUUCAGAUUGUCCGAAUCAUUUAAAUCCCGUCGUAGCCACCA
# DNA 1: CAATCTGAATTCCGGTCTCCC
# DNA 2: TGGTGGCTACGACGGGATT
# B2: CUGGGAU (DNA:RNA)
# RNA: B1 RNA with G25C, A26U, A27G, U28G, C29G
# DNA 1: CAATCTGAATTCCGGTCTCCC
# DNA 2: TGGTGGCTACGACGGGATT
# B3: ACAAACU (DNA:RNA)
# RNA: B1 RNA with G25A, A26C, U28A, C29A, A30C
# DNA 1: CAATCTGAATTCCGGTCTCCC
# DNA 2: TGGTGGCTACGACGGGATT
# B4: UGAUGUG (DNA:RNA)
# RNA: B1 RNA with G25U, A26G, C29G, A30U, U31G
# DNA 1: CAATCTGAATTCCGGTCTCCC
# DNA 2: TGGTGGCTACGACGGGATT
# B5: ACUCACC (DNA:RNA)
# RNA: GGGAGACCGGAAUUCAGAUUGUCCACUCACCUUAAAUCCCGUCGUAGCCACCA
# DNA 1: CAATCTGAATTCCGGTCTCCC
# DNA 2: TGGTGGCTACGACGGGATT
# B6: AGGGACU (DNA:RNA)
# RNA: B5 RNA with C26G, U27G, C28G, C31U
# DNA 1: CAATCTGAATTCCGGTCTCCC
# DNA 2: TGGTGGCTACGACGGGATT
# B7: GUAGGCC (DNA:RNA)
# RNA: B5 RNA with A25G, C26U, U27A, C28G, A29G
# DNA 1: CAATCTGAATTCCGGTCTCCC
# DNA 2: TGGTGGCTACGACGGGATT
# B8: GAUCAUA (DNA:RNA)
# RNA: B5 RNA with A25G, C26A, C30U, C31A
# DNA 1: CAATCTGAATTCCGGTCTCCC
# DNA 2: TGGTGGCTACGACGGGATT
# B9: GAGUCGC (DNA:RNA)
# RNA: B1 RNA with A27G, A30G, U31C
# DNA 1: CAATCTGAATTCCGGTCTCCC
# DNA 2: TGGTGGCTACGACGGGATT
# B10: ACGCUAG (DNA:RNA)
# RNA: B5 RNA with U27G, A29U, C30A, C31G
# DNA 1: CAATCTGAATTCCGGTCTCCC
# DNA 2: TGGTGGCTACGACGGGATT
# B11: UAGCUAC (DNA:RNA)
# RNA: B5 RNA with A25U, C26A, U27G, A29U, C30A
# DNA 1: CAATCTGAATTCCGGTCTCCC
# DNA 2: TGGTGGCTACGACGGGATT
# B12: UCAACGG (DNA:RNA)
# RNA: B1 RNA with G25U, A26C, U28A, A30G, U31G
# DNA 1: CAATCTGAATTCCGGTCTCCC
# DNA 2: TGGTGGCTACGACGGGATT
# B13: ACUCCGC (DNA:RNA)
# RNA: B5 RNA with A29C, C30G
# DNA 1: CAATCTGAATTCCGGTCTCCC
# DNA 2: TGGTGGCTACGACGGGATT
# B14: CCACCAU (DNA:RNA)
# RNA: B1 RNA with G25C, A26C, U28C
# DNA 1: CAATCTGAATTCCGGTCTCCC
# DNA 2: TGGTGGCTACGACGGGATT
# B15: CAAGGAG (DNA:RNA)
# RNA: B1 RNA with G25C, U28G, C29G, U31G
# DNA 1: CAATCTGAATTCCGGTCTCCC
# DNA 2: TGGTGGCTACGACGGGATT
# B16: AGAUGCG (DNA:RNA)
# RNA: B5 RNA with C26G, U27A, C28U, A29G, C31G
# DNA 1: CAATCTGAATTCCGGTCTCCC
# DNA 2: TGGTGGCTACGACGGGATT
# B17: GGCCUUA (DNA:RNA)
# RNA: B5 RNA with A25G, C26G, U27C, A29U, C30U, C31A
# DNA 1: CAATCTGAATTCCGGTCTCCC
# DNA 2: TGGTGGCTACGACGGGATT
# B18: GAGACAG (DNA:RNA)
# RNA: B1 RNA with A27G, U28A, U31G
# DNA 1: CAATCTGAATTCCGGTCTCCC
# DNA 2: TGGTGGCTACGACGGGATT
# B19: CAAGCAA (DNA:RNA)
# RNA: B1 RNA with G25C, U28G, U31A
# DNA 1: CAATCTGAATTCCGGTCTCCC
# DNA 2: TGGTGGCTACGACGGGATT
# B20: CCUUGAC (DNA:RNA)
# RNA: B5 RNA with A25C, C28U, A29G, C30A
# DNA 1: CAATCTGAATTCCGGTCTCCC
# DNA 2: TGGTGGCTACGACGGGATT
# B21: GCCUUCA (DNA:RNA)
# RNA: B5 RNA with A25G, U27C, C28U, A29U, C31A
# DNA 1: CAATCTGAATTCCGGTCTCCC
# DNA 2: TGGTGGCTACGACGGGATT
# B22: CCCCCUG (DNA:RNA)
# RNA: B5 RNA with A25C, U27C, A29C, C30U, C31G
# DNA 1: CAATCTGAATTCCGGTCTCCC
# DNA 2: TGGTGGCTACGACGGGATT
# B23: CGGUGAA (DNA:RNA)
# RNA: B1 RNA with G25C, A26G, A27G, C29G, U31A
# DNA 1: CAATCTGAATTCCGGTCTCCC
# DNA 2: TGGTGGCTACGACGGGATT
# B24: GUGUCCG (DNA:RNA)
# RNA: B1 RNA with A26U, A27G, A30C, U31G
# DNA 1: CAATCTGAATTCCGGTCTCCC
# DNA 2: TGGTGGCTACGACGGGATT
# B25: GCGCCUC (DNA:RNA)
# RNA: B5 RNA with A25G, U27G, A29C, C30U
# DNA 1: CAATCTGAATTCCGGTCTCCC
# DNA 2: TGGTGGCTACGACGGGATT
# B26: AAAUGAC (DNA:RNA)
# RNA: B1 RNA with G25A, C29G, U31C
# DNA 1: CAATCTGAATTCCGGTCTCCC
# DNA 2: TGGTGGCTACGACGGGATT
# B27: ACCAUCU (DNA:RNA)
# RNA: B5 RNA with U27C, C28A, A29U, C31U
# DNA 1: CAATCTGAATTCCGGTCTCCC
# DNA 2: TGGTGGCTACGACGGGATT
# B28: CUUCUAG (DNA:RNA)
# RNA: B5 RNA with A25C, C26U, A29U, C30A, C31G
# DNA 1: CAATCTGAATTCCGGTCTCCC
# DNA 2: TGGTGGCTACGACGGGATT
# B29: AUUAACU (DNA:RNA)
# RNA: B5 RNA with C26U, C28A, C31U
# DNA 1: CAATCTGAATTCCGGTCTCCC
# DNA 2: TGGTGGCTACGACGGGATT
# B30: AGUGAAC (DNA:RNA)
# RNA: B5 RNA with C26G, C28G, C30A
# DNA 1: CAATCTGAATTCCGGTCTCCC
# DNA 2: TGGTGGCTACGACGGGATT
# B31: UGACCGC (DNA:RNA)
# RNA: B5 RNA with A25U, C26G, U27A, A29C, C30G
# DNA 1: CAATCTGAATTCCGGTCTCCC
# DNA 2: TGGTGGCTACGACGGGATT
# Molecular target: T1, RBFOX1 RRM RbFoxmut (Fox-RRM*)
# Test: EMSA; HiTS-Eq, 1 nM pool, 10 min; buffer printed only for the single-RNA assays: 10 mM Tris pH 7.5, 150 mM NaCl, 3.4 mM EDTA, 0.001% NP-40, 30 C
# Settings: tags: His6 N-terminal (pET28a); label: 5' 32P
# Procedure, shortened: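 These values rest on relative association constants, computed from read-count changes of each RNA species versus the control reaction and normalised to the cognate motif. Reads came from free RNA recovered by 8% native PAGE after purified RbFox RRM (wild type or mutant) at increasing concentrations was equilibrated for 10 min in 50 µL with 1 nM of a 5′-radiolabelled pool with 7 randomized nucleotides and DNA-annealed flanks.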
row,Binder,binding signal
1,B1,0.264 KA relative to UGCAUGU
2,B2,0.0962 KA relative to UGCAUGU
3,B3,0.0787 KA relative to UGCAUGU
4,B4,0.184 KA relative to UGCAUGU
5,B5,0.114 KA relative to UGCAUGU
6,B6,0.0576 KA relative to UGCAUGU
7,B7,0.17 KA relative to UGCAUGU
8,B8,0.0779 KA relative to UGCAUGU
9,B9,0.114 KA relative to UGCAUGU
10,B10,0.108 KA relative to UGCAUGU
11,B11,0.104 KA relative to UGCAUGU
12,B12,0.061 KA relative to UGCAUGU
13,B13,0.0838 KA relative to UGCAUGU
14,B14,0.0986 KA relative to UGCAUGU
15,B15,0.112 KA relative to UGCAUGU
16,B16,0.137 KA relative to UGCAUGU

row,Binder,binding signal
1,B17,0.0924 KA relative to UGCAUGU
2,B18,0.0457 KA relative to UGCAUGU
3,B19,0.0563 KA relative to UGCAUGU
4,B20,0.0825 KA relative to UGCAUGU
5,B21,0.146 KA relative to UGCAUGU
6,B22,0.121 KA relative to UGCAUGU
7,B23,0.116 KA relative to UGCAUGU
8,B24,0.216 KA relative to UGCAUGU
9,B25,0.0575 KA relative to UGCAUGU
10,B26,0.0561 KA relative to UGCAUGU
11,B27,0.0489 KA relative to UGCAUGU
12,B28,0.146 KA relative to UGCAUGU
13,B29,0.112 KA relative to UGCAUGU
14,B30,0.104 KA relative to UGCAUGU
15,B31,0.0732 KA relative to UGCAUGU

# From paper PMC9911399, “Two distinct binding modes provide the RNA-binding protein RbFox with extraordinary sequence specificity”
